Experimental data reported in the supplement of paper PMC3724861.
The list shows a part of the results.

Tested on: T1, Caupolican (Caup) homeodomain DNA-binding domain
T1 sequence: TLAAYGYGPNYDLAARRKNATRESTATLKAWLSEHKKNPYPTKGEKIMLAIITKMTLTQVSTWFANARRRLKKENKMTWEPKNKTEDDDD
Assay: PBM E-score (8-mer, recovered from the published 9-mer minima) (E-score (dimensionless, -0.5 to 0.5)); Drosophila protein; higher = stronger relative binding preference, active = 0.31 or more
Description: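 Protein binding microarray (PBM): in vitro transcribed/translated Caupolican (Caup) homeodomain DNA-binding domain (residues 214-303) applied at 100 nM to a universal 8-mer PBM array (Agilent AMADID 015681). The 8-mer enrichment score (E-score, range -0.5 to 0.5) was computed, and each 9-mer score is the minimum E-score of its two constituent 8-mers. The E-score is the same for a 9-mer and its reverse complement; 0.31 is the stated binding threshold.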

Sequence | PBM E-score
AGGTGGAT | inactive: -0.0673
CTTTTCTA | inactive: -0.0577
ATCAGTTA | inactive: 0.151
ATGAGGTA | inactive: 0.114
AAGCGGAT | inactive: -0.113
AAGACGTA | inactive: 0.0818
GACTAAGA | inactive: -0.0118
CTAAATTC | inactive: 0.0449
CGGTTCAC | inactive: -0.149
AACGTTAG | inactive: -0.0541
GGGTACTA | inactive: 0.152
CACTCCTA | inactive: 0.0257
CGTGGCGA | inactive: -0.179
ATAAAAAA | inactive: 0.0277
TCCGCACA | inactive: -0.0736
TGACACCA | inactive: 0.223
ATTCCACG | inactive: -0.0818
GTGTCCTA | inactive: 0.208
GCGAAGAA | inactive: -0.0006
AGTGGCGA | inactive: -0.0893
GCAACATA | inactive: 0.204

Sequence | PBM E-score
CGGAAGCC | inactive: -0.211
GTGTCTGA | inactive: 0.144
AGTAGTGC | inactive: -0.0269
GCGGAGAC | inactive: -0.0671
AGCGCGTG | inactive: -0.102
TCGGGTAA | inactive: 0.0595
CGGCCTGC | inactive: -0.262
GCCTAAAC | inactive: -0.036
GGCGGCAA | inactive: -0.216
ATGGCCGA | ≥ -0.0603
CCAGCTGG | inactive: -0.11
TCACCGCA | inactive: -0.0227
CGTCATAG | inactive: -0.0339
GAACATAA | inactive: 0.282
GGGATGAC | inactive: -0.0792
AGGGCGAC | inactive: -0.13
AACCGCGA | inactive: 0.0077
CGTTCAGC | inactive: -0.0862
ACCGTCAA | inactive: -0.129
GAATACGC | inactive: -0.0247
ACTTCCGA | inactive: -0.0549

Sequence | PBM E-score
CCACCTCC | inactive: -0.168
AACTTGGA | inactive: 0.00535
AAGCCGAC | inactive: -0.0898
AGGCCCAC | inactive: -0.27
CAGGAAAA | inactive: 0.105
CGCGAGAA | inactive: -0.107
CTCGCCTA | inactive: -0.074
CACTGTCA | inactive: 0.139
ACAAAAAA | inactive: 0.199
AACTAGGG | inactive: -0.0781
TACCTAGA | inactive: 0.111
AAACAAAA | inactive: 0.189
CCCGCAAA | ≥ -0.0153
AACAGATG | inactive: 0.151
TTCTTAAA | inactive: 0.0619
AGCCCTCG | inactive: -0.196
CAGTTAAA | inactive: 0.0971
AACCTAAG | inactive: -0.0153
GTCCATGA | inactive: 0.0658
